Results as given in patent publication US20170253656A1.

The binders below were run against CD74 on CD74 positive SU-DHL-6 cells, P04233 (assay: cell-based or functional assay).

Binder | 2ND ADC CELL KILL ACTIVITY IC50 [nM]
HC 1251_B08 (wt)/LC 1337_A07 (g) (antibody, human IgG1, kappa) heavy: MQVQLVESGGGVVQPGRSLRLSCAASGFNFSDYGMHWVRQAPDKGLEWVAVIWYDGSISYYADSVKGRFTISRDNSKNTLYLQMNSLRAEDTAVYYCARGGTVEHGAVYGTDVWGQGATVTVSS[human IgG1 constant region omitted]GGSHHHHHH light: MDIQMTQSPSSVSASVGDRVTITCRASQGISSWVAWYQQKPGKAPKLLIYGASRLQSGVPSRFSGSGSGTDFTLTISSLQPEDFATYYCQQYHTYPLTFGGGTKVEIKRTVAAPSVFIFPPSDEQLKSGTASVVCLLNNFYPREAKVQWKVDNALQSGNSQESVTEQDSKDSTYSLSSTLTLSKADYEKHKVYACEVTHQGLSSPVTKSFNRGEC | 0.037
HC 1251_B08 (wt)/LC 1337_A10 (wt) (antibody, human IgG1, kappa) heavy: MQVQLVESGGGVVQPGRSLRLSCAASGFNFSDYGMHWVRQAPDKGLEWVAVIWYDGSISYYADSVKGRFTISRDNSKNTLYLQMNSLRAEDTAVYYCARGGTVEHGAVYGTDVWGQGATVTVSS[human IgG1 constant region omitted]GGSHHHHHH light: MDIQMTQSPSSLSASVGDRVTITCRASQGISSWVAWYQQKPEKAPKSLIYGSSRLQSGVPSRFSGSGSGTDFTLTISSLQPEDFATYYCQQYNTYPLTFGGGTKVEIKRTVAAPSVFIFPPSDEQLKSGTASVVCLLNNFYPREAKVQWKVDNALQSGNSQESVTEQDSKDSTYSLSSTLTLSKADYEKHKVYACEVTHQGLSSPVTKSFNRGEC | 0.017
HC 1251_B08 (wt)/LC 1337_A10 (g) (antibody, human IgG1, kappa) heavy: MQVQLVESGGGVVQPGRSLRLSCAASGFNFSDYGMHWVRQAPDKGLEWVAVIWYDGSISYYADSVKGRFTISRDNSKNTLYLQMNSLRAEDTAVYYCARGGTVEHGAVYGTDVWGQGATVTVSS[human IgG1 constant region omitted]GGSHHHHHH light: MDIQMTQSPSSVSASVGDRVTITCRASQGISSWVAWYQQKPGKAPKLLIYGSSRLQSGVPSRFSGSGSGTDFTLTISSLQPEDFATYYCQQYNTYPLTFGGGTKVEIKRTVAAPSVFIFPPSDEQLKSGTASVVCLLNNFYPREAKVQWKVDNALQSGNSQESVTEQDSKDSTYSLSSTLTLSKADYEKHKVYACEVTHQGLSSPVTKSFNRGEC | 0.046
